Data from PubChem BioAssay AID1347077 (National Center for Advancing Translational Sciences (NCATS), 2019).
Hit rate of the full screen: of about 44,000 compounds, fewer than 10 were called active. The shares of active, inactive and inconclusive entries below differ from those in the screen. The call rests on the fitted dose curve; in most records, active means well fitted activation curve with a large enough effect; inconclusive means small, poorly fitted or top-dose-only effect, or another doubt; inactive means no such curve, though single readings can be large or run the other way. No potency is given beside an inconclusive call; the fits are too rough.
Potency means the concentration at half of the fitted maximal effect; tags describe the fitted curve by direction and shape.

Each compound was assayed against Beta-2 adrenergic receptor (Homo sapiens) (UniProt P07550) (assay: qHTS assay of beta-arrestin-biased ligands of beta2-adrenergic receptor: NCGC Sytravon Library Screen). Details: HTLA Tango cells, beta-arrestin recruitment, luciferase luminescence, 18 h; series mostly up to 46.1 µM.
Chain of UniProt P07550 (P07550 whole entry, looked up): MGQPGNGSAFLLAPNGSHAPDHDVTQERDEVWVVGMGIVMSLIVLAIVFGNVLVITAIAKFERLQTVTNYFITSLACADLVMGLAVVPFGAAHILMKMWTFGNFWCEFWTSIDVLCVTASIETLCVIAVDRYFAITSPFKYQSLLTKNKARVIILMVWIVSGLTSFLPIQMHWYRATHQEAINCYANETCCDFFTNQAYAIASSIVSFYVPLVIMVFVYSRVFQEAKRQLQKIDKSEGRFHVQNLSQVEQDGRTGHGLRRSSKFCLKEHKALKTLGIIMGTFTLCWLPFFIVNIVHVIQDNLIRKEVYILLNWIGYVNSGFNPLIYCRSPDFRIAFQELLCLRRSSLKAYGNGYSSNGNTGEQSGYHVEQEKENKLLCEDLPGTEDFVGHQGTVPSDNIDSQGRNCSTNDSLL
Procedure, shortened: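 Tango cells (recombinant beta2-AR, beta-arrestin, tTA-driven luciferase), 1500/well in DMEM 1% FBS, treated 18 h at 37 °C with compounds up to 46 µM; luciferin mix added, luminescence read after 15 min; %activity curves fitted and curve-classed.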
`CCc1cccc(NC(=O)Nc2cn(C)c(=O)c3ccccc23)c1` was tested, and the Potency was “inactive”.
In the case of `COc1ccc(CCNC(=O)CSc2nc3nc(C)c(Cc4ccc(C)cc4)c(C)n3n2)cc1OC`, the Potency is reported as inconclusive [activator, single point].
For `COc1ccc(Cn2c(CO)cnc2SCc2ccccc2C)cc1`, the Potency was “inactive”.
`CCc1ccc(CNC(=O)c2sc3ncccc3c2-n2c(C)ccc2C)cc1` was tested, and the Potency was “inactive”.
In the case of `CCc1ccc(C2c3c(-c4ccccc4O)n[nH]c3C(=O)N2Cc2ccncc2)cc1` (centres undefined), the Potency is reported as inconclusive [activator, single point].
`CN1CCN(C(=O)c2cnn(-c3cccc(F)c3)c2C2CCN(C(=O)OC(C)(C)C)CC2)CC1` was tested, and the Potency was “inactive”.
In the case of `COC(=O)CN1C(C(=O)c2ccccc2)=C(OC(=O)c2ccc(C)cc2)c2ccccc2S1(=O)=O`, the Potency is reported as inconclusive [activator, partial curve, poor fit].
`Cc1ccc(-n2c(SCC(=O)Nc3ccc4c(c3)OCCO4)nc3c([nH]c4ccccc43)c2=O)cc1` was tested, and the Potency was inconclusive [activator, single point].
For `COc1cccc(C(c2sc3nc(-c4ccco4)nn3c2O)N2CCN(c3ccccc3F)CC2)c1` (centres undefined), the Potency was inconclusive [activator, partial curve, poor fit].
With `CCOc1ccccc1NC(=O)c1c(NCc2cccs2)sc2c1CCCCC2` the Potency was inconclusive [activator, full curve, poor fit].
In the case of `CCc1ccc(-n2c(SCc3ccccc3C)nc3[nH]ncc3c2=O)cc1`, the Potency is reported as inconclusive [activator, single point].
For `O=C(Nc1ccccc1F)c1nc(SCc2ccccc2F)ncc1Cl`, the Potency was inconclusive [activator, partial curve, poor fit].
With `COC(=O)c1cc2sc(Cl)cc2n1CC(=O)Nc1cc(OC)cc(OC)c1` the Potency was “inactive”.
With `COCCCNC(=O)Cn1c(=O)n(-c2ccc(Cl)cc2)c(=O)c2c3c(sc21)CCCCC3` the Potency was “inactive”.
In the case of `COc1ccc(Br)cc1CNC(=O)c1ccc(-n2c(C)cc3c2CCC(C)C3)cc1` (centres undefined), the Potency is reported as inconclusive [activator, single point].
With `CCOC(=O)c1ccc(Nc2nc3nonc3nc2Nc2cccc(C)c2C)cc1` the Potency was “inactive”.
For `N#C/C(=C\c1cccc(F)c1)c1nc(-c2cc3c(ccc4ccccc43)oc2=O)cs1`, the Potency was “inactive”.
`CCOc1ccc(CCNC(=O)c2ccc(-n3c(C)cc4c3CCC(C)C4)cc2)cc1OCC` (centres undefined) was tested, and the Potency was inconclusive [activator, single point].
In the case of `O=C(CSc1nc2c([nH]c3ccccc32)c(=O)n1-c1ccccc1)Nc1ccc2c(c1)OCCO2`, the Potency is reported as inconclusive [activator, single point].
For `Cc1ccc(O)c(NC(=O)CCS(=O)(=O)c2nc(-c3cccs3)cc(C(F)(F)F)n2)c1`, the Potency was inconclusive [activator, partial curve, poor fit].
For `O=c1c(N2CCc3ccccc3C2)csc2ccc(F)cc12`, the Potency was inconclusive [activator, single point].
With `COc1ccc(C(=O)NCC(c2cccnc2)N2CCN(c3ccccc3)CC2)cc1` (centres undefined) the Potency was “inactive”.
With `Cc1ccccc1CNC(=O)c1ccc(-n2c(C)cc3c2CCCC3)cc1` the Potency was inconclusive [activator, single point].
In the case of `COc1ccc(CCNC(=O)C(C)n2nc(C)c3sc4ccccc4c3c2=O)cc1OC` (centres undefined), the Potency is reported as “inactive”.
For `CCOc1ccc(CCNC(=O)c2cc3cc4ccc(OC)cc4nc3s2)cc1OCC`, the Potency was “inactive”.
`O=C(Cn1c(=O)n(Cc2ccco2)c(=O)c2ccccc21)Nc1ccc(Cl)cc1Cl` was tested, and the Potency was “inactive”.
`COc1ccc(C(CC(=O)Nc2ccc(F)c(Cl)c2)N2Cc3ccccc3C2=O)cc1OC` (centres undefined) was tested, and the Potency was “inactive”.
With `CCn1c(SCc2ccccc2)nnc1-c1nonc1NC(C)=O` the Potency was inconclusive [activator, partial curve, poor fit].
For `CCOc1ccc(CCNC(=O)c2ccc3c(c2)c(C)c(C)n3C)cc1`, the Potency was “inactive”.
`COc1cccc(CN(C(=O)c2oc3cc(C)ccc3c2C)C2CCS(=O)(=O)C2)c1` (centres undefined) was tested, and the Potency was inconclusive [activator, single point].
`CCOCCCN1C(=O)c2[nH]nc(-c3ccccc3O)c2C1c1ccc(CC)cc1` (centres undefined) was tested, and the Potency was active: 7.08 µM.
In the case of `Cc1c(CCNC(=O)c2ccco2)sc2nc(-c3ccc(F)cc3)nn12`, the Potency is reported as “inactive”.
In the case of `CC(CNC(=O)c1ccc(CSc2nc3ccncc3n2Cc2ccccc2)cc1)c1ccccc1` (centres undefined), the Potency is reported as inconclusive [activator, single point].
`CCc1nc(SCc2cc(=O)c3cc(C)ccc3[nH]2)n[nH]1` was tested, and the Potency was “inactive”.
In the case of `CCOC(=O)c1c(SCC(=O)Nc2nc3ccccc3s2)nc(=O)[nH]c1C`, the Potency is reported as inconclusive [activator, single point].
In the case of `CCCN(CCC)S(=O)(=O)c1ccc2c(c1)N(CC(=O)NCc1ccc(F)cc1Cl)C(=O)CS2`, the Potency is reported as inconclusive [activator, partial curve, poor fit].
With `O=c1c2oc3ccccc3c2n(Cc2cccc(Cl)c2)c(=O)n1Cc1ccco1` the Potency was “inactive”.
For `CC(C)OCCCN1C(=O)c2[nH]nc(-c3ccccc3O)c2C1c1ccc(OCc2ccccc2)cc1` (centres undefined), the Potency was inconclusive [activator, single point].
`Cc1ccc(S(=O)(=O)N2CCCc3cc(NS(=O)(=O)c4ccc(C)c(C)c4)ccc32)cc1` was tested, and the Potency was “inactive”.
With `COC(=O)c1ccn(-c2nc(-c3ccc(Cl)cc3)cc(C(F)(F)F)n2)n1` the Potency was inconclusive [activator, partial curve, poor fit].
`O=C(Nc1cccc(Cl)c1)C1CCN(S(=O)(=O)Cc2ccccc2)CC1` was tested, and the Potency was “inactive”.
With `Cc1ccc2oc(C(=O)N(Cc3sccc3C)C3CCS(=O)(=O)C3)c(C)c2c1` (centres undefined) the Potency was inconclusive [activator, partial curve, poor fit].
With `CC(=O)N1CCCc2cc(S(=O)(=O)N3CCCC(C(=O)NCc4ccc(C)cc4)C3)ccc21` (centres undefined) the Potency was “inactive”.
`COc1ccc(CCNC(=O)Cn2c(=O)nc(-c3ccccc3)c3cc(Cl)ccc32)cc1OC` was tested, and the Potency was inconclusive [activator, partial curve, poor fit].
